# Values joined by “and” are separate entries in the source; they are usually repeats but may differ in a detail not shown here. Equal values may be shown once. Hit rate of the full screen: of about 94,000 compounds, about 6,200 (6.6%) were called active. The shares of active, inactive and inconclusive entries below differ from those in the screen. Calls come from the whole dose curve; as a rule, active = well fitted inhibition curve with a large enough effect; inconclusive = small, poorly fitted or top-dose-only effect; inactive = flat fitted curve, though single readings scatter. Potencies of inconclusive entries are doubtful fits and often do not repeat.
# Assay: Cytotoxic Profiling in HEK 293 Cell Line of Diverse Libraries Using Quantitative High-Throughput Screening; note: nearly all actives have a fitted effect of over 60% in size
# Conditions: HEK 293 viability, ATP luminescence (CellTiter-Glo), 48-72 h; series mostly up to 115 µM
# Outline: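 Cells seeded first (HEK 293, 250 cells/well), then compound added by pintool. Incubation ran 48 or 72 hr at 37 degree Celsius. CellTiter-Glo was added and luminescence imaged after 10 min at room temperature.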
# Potency is the fitted concentration of half-maximal effect; tags give direction and shape of the fitted curve.
row,SMILES,Potency
1,CN1C(=O)CCC2(CNC(=O)Cc3ccccc3)CCC=C12 (stereo not given),inactive
2,COc1ccc(CCN(C)C(=O)CC(c2cccc(F)c2)c2cn(C)c3ccccc23)cc1OC (stereo not given),active: 39.8 µM
3,CC(C)NC(=O)CN1C(=O)NC(c2ccc(Cl)cc2)C2=C1COC2=O (stereo not given),"inconclusive: 15.8 µM [inhibitor, full curve]"
4,O=C(Nc1ccccc1)C1CCCN(c2cnc3nccnc3c2)C1 (stereo not given),"inconclusive: 100 µM [inhibitor, single point]"
5,COCCCNC(=O)c1cn2cc(-c3ccc(C)cc3)sc2n1,"inconclusive: 89.1 µM [inhibitor, partial curve, poor fit]"
6,CCOC(=O)N1CCC(Oc2cnc3c(ccn3-c3cncnc3)c2)CC1,inactive
7,O=C(NCC1CN(Cc2cccnc2)CC12CN(c1ccccc1)C2)Nc1ccccc1 (stereo not given),"inconclusive: 112 µM [inhibitor, single point]"
8,COCCCNC(=O)c1ccnc(-c2nnc3ccc(N(C)C)nn23)c1,inactive
9,O=C(NC1CCN(c2cc(-c3cccs3)[nH]n2)CC1)c1cc(Cl)ccc1F,"inconclusive: 50.1 µM [inhibitor, partial curve, poor fit]"
10,CCCc1ccc(S(=O)(=O)N2CCC3(CC2)[C@H](C(=O)NC)[C@@H](OC(N)=O)C(=O)N3C)cc1,"inconclusive: 100 µM [inhibitor, partial curve, poor fit]"
11,O=C(c1ccccc1)N1Cc2ccccc2CC2(CCCN2Cc2ccncc2)C1 (stereo not given),"inconclusive: 50.1 µM [inhibitor, partial curve, poor fit]"
12,O=C(NC1CC1)[C@@H]1CN(Cc2ccc(F)cc2F)C[C@H]1CO,"inconclusive: 89.1 µM [inhibitor, single point]"
13,CCOC(=O)C1CCN(C(=O)C2CCCN(c3ccnc4ccnn34)C2)CC1 (stereo not given),inactive
14,CC(C)c1cnc(-c2ccncc2)[nH]1,inactive
15,CCc1cn[nH]c1C1CCCN(C(=O)c2cnn(-c3ccccc3OC)c2)C1 (stereo not given),"inconclusive: 50.1 µM [inhibitor, partial curve, poor fit]"
16,COC(=O)N1CCC2(C1)C(=O)N(CCc1ccccc1)c1ccccc12 (stereo not given),"active: 63.1 µM and inconclusive: 79.4 µM [inhibitor, partial curve, poor fit]"
17,COc1ccc(Nc2ccc3c(n2)CN(Cc2ccc(F)cc2)C(=O)CO3)cn1,active: 89.1 µM
18,CNC(=O)c1ccc(NC(=O)c2nc(C(O)c3ccccc3F)oc2C)cc1 (stereo not given),"inconclusive: 89.1 µM [inhibitor, partial curve]"
19,Cc1nc(CN2CC3(CCN(C)C3)c3cc(C(=O)NCCc4ccccc4)ccc32)cs1 (stereo not given),active: 79.4 µM
20,O=C(c1ccncc1)N1C2CCC1CN(c1ccc(C(F)(F)F)cc1)C2,"inconclusive: 25.1 µM [inhibitor, full curve]"
21,CN1[C@@H](CCC(=O)N2CCN(c3ccccn3)CC2)CNC(=O)[C@@H]2[C@H]1CCN2Cc1ncc[nH]1,inactive
22,CC1(CCCCc2ccccc2)COc2ccc(C(=O)NC3CCOCC3)cc2N1 (stereo not given),"inconclusive: 79.4 µM [inhibitor, partial curve, poor fit]"

row,SMILES,Potency
1,Cc1ccc(CN2CCCC3(CNc4ccccc4[S+](=O)([O-])N3)C2)cc1 (stereo not given),"inconclusive: 56.2 µM [inhibitor, partial curve, poor fit]"
2,CCOCCOc1ccccc1C(=O)N1CC[C@@](O)(COC)C(C)(C)C1,inactive
3,O=C(NCc1cccc(F)c1)C1CCCN(Cc2cccc(-c3cccs3)c2)C1 (stereo not given),"inconclusive: 35.5 µM [inhibitor, partial curve, poor fit]"
4,COc1ccc2[nH]c(=O)c(CCC(=O)N3CCN(CC(C)C)CC3)cc2c1,inactive
5,O=C(NCC1CCN(c2cc(-c3ccccc3)[nH]n2)CC1)c1n[nH]c2c1CCCC2,"inconclusive: 44.7 µM [inhibitor, partial curve, poor fit]"
6,COC(=O)C1=C(C)N=C2SC=C(CC(=O)NCCc3ccccc3)N2C1c1cccc(OC)c1 (stereo not given),active: 44.7 µM
7,O=C1CCC2(CCCO2)CCN1Cc1ccc(C(F)(F)F)cc1 (stereo not given),"inconclusive: 50.1 µM [inhibitor, partial curve]"
8,OC[C@@H]1CN(C2CCCCC2)C[C@H]1c1nc(-c2ccncc2)no1,inactive
9,Cc1nn(-c2ccccc2)c2c1C(C(C)C)N(C1CCN(C(=O)c3ccc(Cl)cc3)C1)C2=O (stereo not given),"inconclusive: 50.1 µM [inhibitor, partial curve, poor fit]"
10,CNC(=O)c1cccc(-c2cnc3[nH]cc(CC(=O)NC4CCC4)c3c2)c1,"inconclusive: 100 µM [inhibitor, partial curve]"
11,COCCN1CCCN(C(=O)c2ccc(F)c(F)c2)c2ccccc21,"inconclusive: 8.91 µM [inhibitor, full curve, poor fit]"
12,COc1ccc(C(=O)NC2CCN(c3ccc4nnc(C)n4n3)CC2)cc1,"inconclusive: 89.1 µM [inhibitor, single point]"
13,O=C(Cc1ccc2c(c1)OCO2)N1CCc2c(n(CCOc3ccccc3)n(-c3ccccc3)c2=O)C1,"inconclusive: 89.1 µM [inhibitor, partial curve, poor fit]"
14,O=C(NC1CCCCCCC1)C1CCN(C(=O)c2ncn3c2COC(c2ccc(F)cc2)C3)CC1 (stereo not given),inactive
15,COc1ccccc1-c1nnc2ccc(C(=O)NCCc3ccccc3)cn12,"inconclusive: 79.4 µM [inhibitor, partial curve]"
16,O=C(C1CCCC1)N1CCCC(c2noc(COc3ccccc3)n2)C1 (stereo not given),"inconclusive: 50.1 µM [inhibitor, partial curve, poor fit]"
17,O=C1C(N2CCN(S(=O)(=O)Cc3cccc(Cl)c3)CC2)CCN1Cc1cccnc1 (stereo not given),"inconclusive: 79.4 µM [inhibitor, single point]"
18,Cc1nn(-c2ccc(C(C)(C)C)cc2)c(C)c1[C@@H]1C=C[C@@H](NC(=O)NCc2ccccc2)C1,active: 28.2 µM
19,Cc1ccc(-c2cc(C(=O)N3CCN(c4ccccc4)CC3)c3cnn(C)c3n2)cc1,"inconclusive: 44.7 µM [inhibitor, partial curve, poor fit]"
20,O=[S+]([O-])(c1cccs1)N1CC(Oc2ccc(F)cc2F)C1,"inconclusive: 79.4 µM [inhibitor, partial curve]"
21,COCc1cc(C[C@@H]2CC[C@H](O)[C@@H](CNC3CCCCC3)O2)no1,inactive
22,O=C(Cc1cccc(Cl)c1)N1CCCC1C(=O)N1CCCC1c1nc2ccncc2[nH]1 (stereo not given),inactive

row,SMILES,Potency
1,COCCN1C(=O)CCc2cc(NC(=O)CCc3ccccc3)ccc21,"inconclusive: 89.1 µM [inhibitor, single point]"
2,COCCOC1CN(C2CCN(C(=O)C3CCOCC3)CC2)C12CCCCC2 (stereo not given),inactive
3,COc1ccc(CN2CC3(CCN(C(=O)c4ccc(OC)cc4OC)CC3)C2=O)cc1,"inconclusive: 50.1 µM [inhibitor, partial curve, poor fit]"
4,CCN1C(=O)C2CC3(CCN(C(=O)CCOC)CC3)CN2C1=O (stereo not given),inactive
5,O=C(c1cc(F)ccc1F)N1CCC(n2cc(-c3nc(-c4ccccc4)no3)nn2)CC1,"inconclusive: 50.1 µM [inhibitor, partial curve, poor fit]"
6,O=C(COc1ccccc1)NCc1nnc2ccc(-c3ccc(Cl)cc3)nn12,"inconclusive: 89.1 µM [inhibitor, single point]"
7,CN(Cc1cccc(C(F)(F)F)c1)C(=O)c1ccc(F)cc1,"inconclusive: 126 µM [inhibitor, single point]"
8,Cc1ncsc1CN1CCC[C@H]1C(=O)N1CCCCCCNC(=O)CC1,inactive
9,CCc1ccc(S(=O)(=O)N2CCN(C3CCN(Cc4ccccn4)C3=O)CC2)cc1 (stereo not given),"inconclusive: 79.4 µM [inhibitor, partial curve]"
10,O=C(NCCc1cccnc1)c1cc2n(n1)CC(c1ccc(Br)cc1)OC2 (stereo not given),active: 39.8 µM
11,CN1C(=O)CCCCC1C(=O)NCc1ccccc1 (stereo not given),inactive
12,CN(C)C(=O)C1=NOC2CN(C(=O)c3ccn(C)n3)CC12 (stereo not given),inactive
13,C[C@]12CC[C@H](O)CC1=CCC[C@@H]2OC(=O)NCc1ccccc1,"inconclusive: 17.8 µM [inhibitor, full curve, poor fit]"
14,CCN1CCN(C(=O)c2cc3n(n2)CC(c2ccc(Br)cc2)OC3)CC1 (stereo not given),"inconclusive: 44.7 µM [inhibitor, partial curve, poor fit]"
15,CNC(=O)C1CCCN(c2nccc(Nc3ccccc3F)n2)C1 (stereo not given),"inconclusive: 112 µM [inhibitor, partial curve, poor fit]"
16,COCCn1ncc(N2CCC(C(=O)N3CCC(N(C)Cc4cccc(Cl)c4)CC3)C2)cc1=O (stereo not given),"inconclusive: 63.1 µM [inhibitor, partial curve, poor fit]"
17,COc1ccccc1-n1cc(C(=O)NCc2cc3n(n2)CCNC3)cn1,"inconclusive: 89.1 µM [inhibitor, single point]"
18,O=C(c1ccco1)N1CCC(F)(c2nc(-c3ccncc3)no2)CC1,"inconclusive: 89.1 µM [inhibitor, single point]"
19,CC(C)C[C@@H]1N[C@H](C(=O)N2CCOCC2)Cc2cn(Cc3ccccn3)c3cccc1c23,active: 100 µM
20,Cc1cc(S(=O)(=O)N2CCCN(C)c3ccccc32)ccc1F,active: 79.4 µM
21,Cc1ccsc1C(=O)N1CCN(c2cc(-c3cccs3)[nH]n2)CC1,"inconclusive: 44.7 µM [inhibitor, partial curve, poor fit]"
